Certain results were filed several times, with different values. The list is limited to them. There may be further records. The values listed for one entry repeat one measurement in other runs, samples, wells, individuals or studies. Counts like (3×) count equal records among those shown.
System: 966289-007-R4-J1-PDC complex spheroid viability
Assay: Anticancer human tumor 966289-007-R4-J1-PDC patient-derived pancreatic adenocarcinoma cell line growth inhibition [GQUAD]
Conditions: compound alone 0.0316 µM; stronger effect = lower value
From the text: DNA G-quadruplex Stabilizer Agents in Combinations in Complex Spheroids
A high-throughput screen of multi-cell type tumor spheroids was designed to identify active combinations of DNA G-quadruplex stabilizer agents and targeted small molecules. Complex spheroids include a stromal component modeled by human endothelial cells (HUVEC) and fibroblasts modeled by human mesenchymal stem cells (MSCs). The concentration ranges selected for each drug and investigational agent were based upon clinically achievable concentrations if the clinical Cmax of the agent was known.
Compounds. […] If the clinical Cmax for an agent had not been determined, the highest concentration tested was 10 microM. […]
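Further: spheroids exposed to the agents for seven days before readout; percent viability relative to DMSO vehicle control wells taken as 100%.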

With `Cc1cnc(CNC(=O)c2c(=O)c3ccc(N4CCCN(C)CC4)nc3n3c2sc2ccccc23)cn1` as the compound, how does the viability, T/C read?
Its viability, T/C is 109, 110 (3×), 119 (2×), 111, 92.8, 118, 106 (2×), 116%.

— PubChem BioAssay AID2060488 (Molecular Pharmacology Branch, DTP, NCI, 2025)
